Reference: the supplement of paper PMC3334620
Whole data set: some 33,000 sequences, median “E-score (-0.5 to 0.5)” near -0.016, cut for the highest 2% near 0.32. The list shows a part of the results.

These sequences were tested against T1, Stp1 (UniProt B3LFK1) (assay: PBM E-score (8-mer binding enrichment) (E-score (-0.5 to 0.5)); higher = stronger / more preferred TF binding; most listed sequences are background and not binding sites). Settings: protein concentration: 200 nM; construct: GST-full length.
T1 sequence: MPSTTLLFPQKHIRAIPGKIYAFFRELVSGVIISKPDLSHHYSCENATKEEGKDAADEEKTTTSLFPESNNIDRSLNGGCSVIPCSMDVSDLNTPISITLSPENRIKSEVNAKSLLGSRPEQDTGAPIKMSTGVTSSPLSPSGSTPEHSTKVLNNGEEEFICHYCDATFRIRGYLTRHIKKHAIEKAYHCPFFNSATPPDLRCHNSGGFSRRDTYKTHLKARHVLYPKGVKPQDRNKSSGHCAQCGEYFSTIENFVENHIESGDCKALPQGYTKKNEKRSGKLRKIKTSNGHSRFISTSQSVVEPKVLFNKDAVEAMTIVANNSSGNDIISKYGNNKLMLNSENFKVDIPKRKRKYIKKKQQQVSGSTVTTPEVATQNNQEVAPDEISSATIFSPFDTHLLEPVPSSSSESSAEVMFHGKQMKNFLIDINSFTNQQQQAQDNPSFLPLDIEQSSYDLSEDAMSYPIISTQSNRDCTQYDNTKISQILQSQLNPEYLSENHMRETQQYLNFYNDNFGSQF
In short: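 Using PURExpress in vitro transcription/translation, GST-tagged yeast transcription factors were made in full-length or DNA-binding-domain form. These were applied at about 100-200 nM to double-stranded universal all-10-mer Agilent arrays, and bound protein was detected with fluorescent anti-GST. Scans were normalised with masliner before the Universal PBM Analysis Suite assigned E-scores to ungapped eight-base words pooled with their reverse complements.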

Sequence	PBM E-score
AGTGATGC	0.179
GTTGAATA	0.0719
AAATCAGC	0.0796
GAACAATC	0.0167
CACCATCC	-0.335
CATCACAC	0.0122
AGATTGCT	-0.0951
AGATACAC	0.0578
ACCGGGCT	-0.311
GCCGATCA	0.123
GATTCGAA	0.166
ACTAATTA	0.255
ACATGGGG	-0.166
GCTAACAC	0.0717
CCCGGCGG	-0.317
CGTCGTCC	-0.129
CAACGCAA	0.132
GGCGAACA	0.0676
CGTACCTC	-0.14
AGGCGTAT	0.196
ATTCGGCG	0.31
AAATGAGC	-0.0135
ATATCCAC	0.106

Sequence	PBM E-score
AGGCGAGC	-0.167
CACCGACG	-0.0444
GTTAGCAA	0.0597
CCAAAAGA	0.0668
GGGTATGA	0.118
ACCCTAGG	-0.154
AGCCTCCT	-0.0608
AATGGCTA	0.0992
CCCATAAG	-0.0605
ATTGTGTC	-0.066
CAATTCTC	0.00479
GATCTCGC	0.0296
AACGGCAG	0.384
AAGTAAGT	-0.0444
ACTTATAC	0.082
AAAGTTAA	0.102
CAAGTTGA	0.152
GACCATCA	-0.204
CTGCCGCC	0.226
GTTGCCTA	0.0499
AGTCGGAC	-0.226
TACTATGA	-0.00845
GAGCGCTC	-0.273

Sequence	PBM E-score
ATTTATTG	0.0483
ATACCGCG	0.0435
ATAGAAAG	-0.00223
GTTGGACA	-0.0765
ACTTATGG	-0.0126
CCATTGAG	0.149
AACAGTAT	0.102
GCTGGGTA	-0.175
ATGCACTC	-0.0521
ACAGATAG	-0.0308
CCGATTTC	-0.197
AACTTCTC	-0.0459
CCCCGCCC	0.139
ATACCAAA	0.125
ATTTCGTA	0.0445
CTTGAGAA	0.0607
GGAGTTTA	0.0317
AACGTTCC	-0.0561
CACGCATC	0.0489
GCCGATAC	0.166
CGAAATGC	0.058
TAACAGGA	0.082
AACGAGTG	0.0141

Sequence	PBM E-score
ATACTCCG	-0.0692
CCGGTTAG	0.0271
ACCCTCAT	-0.294
AGTACCAC	-0.175
CGGCGCAG	0.428
GCTAGTGA	-0.112
CGCCTAAC	0.173
CTCCAAGA	-0.0573
CTGGAGTC	-0.362
CTACCGAA	-0.205
AGGATTCA	0.018
TACTGTCA	-0.0638
CAACAATA	0.155
ACCCCCCT	-0.476
ACGTATAC	0.115
CTTTCCAC	-0.0511
CATGGTAA	-0.078
AATTGCGC	0.258
ACCCTCGT	-0.093
GGCTAGTA	0.134
AGTTAGGA	-0.0341
ACTTCCCG	-0.0848
CACTTCCG	-0.0304

Sequence	PBM E-score
CCACTCGA	0.133
AACATTGA	0.119
CGTGAGAA	-0.00801
CGTGGGCA	-0.0733
CGTATCGA	-0.0269
CATGGCAC	0.311
CGCGGGAC	-0.1
AGTTAGTC	-0.253
ACGCAAGT	-0.141
AGGAATGA	0.00228
GTGCGACA	-0.0105
AGGACAGA	-0.232
GACCAGTC	-0.129
ATGGTGAG	-0.2
GCTTCTAC	0.0532
AGCAATGG	-0.197
AGTTGTAA	0.0158
ATTTTATA	0.255
CTCCGATA	-0.217
CCGGTGAC	-0.284
ACTAGCAC	-0.237
GAACTAGA	0.148
ACGCTGCT	-0.216

Sequence	PBM E-score
CAAATTGC	0.115
GGAGGAGA	-0.317
CCTCCCAA	-0.151
CTTGAATA	0.0938
CTGGCGAC	-0.178
AACCGTCA	-0.225
AACCTTCG	-0.00287
CGTCTCTA	-0.236
GCAAATAA	0.232
ATATGCTA	0.0789
ATTCCCAG	-0.0955
CCTTCAAA	0.0503
TAGGTAGA	-0.0558
AAGTAAAG	-0.116
GTACTCAC	0.0627
TTGTCAAA	0.151
CCTAACAA	0.103
CATCGCTC	-0.0903
GTATTAAA	0.245
CAGGCTGC	-0.119
CCAGGAGA	-0.0605
CATGGAGA	-0.135
GGATCGCA	-0.0944

Sequence	PBM E-score
CCCCTAAA	-0.228
CCTGATAA	0.0292
GGGTCCGA	-0.218
TACTTTGA	0.0852
TAACGGTA	0.0369
GGCGTACC	0.106
CCAAGTGA	-0.153
ATCGCACC	-0.169
AAGGTTCC	-0.0856
GGCGGTAA	0.163
GTTTTGAA	0.181
CCGATAAC	-0.0332
ACAGTGAT	0.0195
ATTAGGAG	0.103
ATGGAAGC	0.0002
CAGACATC	0.00256
AATGCGGG	0.174
TCGATACA	0.194
AAACTTAG	0.0613
ATCTGCCC	-0.219
